Test results: PubChem BioAssay AID463173 (ICCB-Longwood Screening Facility, Harvard Medical School, 2010)
Out of some 52,000 compounds screened, about 1,700 (3.3%) were called active. Rule as the data show it: active = survival mostly below about 52% (no sharp cut-off); inactive = mostly above about 56%. Some of the results follow.

System: Wild type
Assay: S. aureus survival, RN4220 and DeltatarO strains – OD600, teichoic acid synthesis inhibitors, primary screen (AID 463173)
Details: S. aureus RN4220 wild type/DeltatarO growth, OD600, 18 h, active compounds read low, screened at 18.75 µg/mL (by protocol)

| SMILES | survival |
| --- | --- |
| CN1CCc2c(sc3nc(=S)[nH]c(N)c23)C1 | inactive: 109% |
| O=C(c1ccco1)N1CCN(c2c3c(nc4cc(-c5cccc(F)c5)nn24)CCCC3)CC1 | inactive: 113% |
| COCC(C)NCc1cc(F)ccc1F (stereo unspecified) | inactive: 109% |
| Cc1cccc(-n2c(=O)c3c(c4cc(C)ccc4n3C)n(C)c2=O)c1 | inactive: 74% |
| CCc1ccc(CN(Cc2ccco2)C(=O)COc2ccccc2Cl)cc1 | inactive: 85% |
| Cc1ccc(-c2nnc(Nc3cccc(Br)c3)c3ccccc23)cc1S(=O)(=O)N1CCCCC1 | inactive: 90% |
| Cc1ccc(C)c(C(=O)CSc2nc(-c3ccccc3)nc3c2CCCC3)c1 | active: 6% |
| Cc1c(Cl)cccc1NC(=O)N1CCC(CN2CCOCC2)CC1 | inactive: 85% |
| O=C(NC1=NCCS1)c1ccccc1 | inactive: 107% |
| CC(C)C(=O)Nc1nnc(S(=O)(=O)N(C)Cc2ccc(F)cc2)s1 | inactive: 87% |
| CCOc1ccccc1NC(=O)C1CCCN(c2ncnc3onc(-c4ccc(F)cc4)c23)C1 (stereo unspecified) | inactive: 58% |
| COc1ccc(NC(=O)C2CCN(S(=O)(=O)c3cn(C)cn3)CC2)cc1Cl | inactive: 73% |
| CC(=O)OCc1cnc(C)c2oc(=O)c(C(=O)Nc3cc(F)ccc3C)cc12 | inactive: 137% |
| O=C(c1ccc([N+](=O)[O-])cc1)N(Cc1ccco1)c1ccccn1 | inactive: 83% |
| COc1ccc(C2C(C(=O)Nc3ccc(C)cc3C)=C(C)Nc3nc(SC)nn32)cc1OC (stereo unspecified) | inactive: 71% |
| Cc1ccc(NC(=O)CSc2nnc(COc3ccc(Cl)cc3)o2)cc1 | inactive: 87% |
| O=S1(=O)CCC(NCc2ccccc2)C1 (stereo unspecified) | inactive: 109% |
| NC(=O)CN1C(=O)C2(SCC(=O)N2c2cccc(F)c2)c2ccccc21 (stereo unspecified) | inactive: 74% |
| CCCCn1c(=O)c2oc3ccccc3c2n(Cc2ccc(OC)cc2)c1=O | inactive: 115% |
| Cc1cc(C)cc(NC(=O)c2cn3c4c(ccc(Cl)c4c2=O)OC(C)C3)c1 (stereo unspecified) | inactive: 90% |
| COc1ccc(S(=O)(=O)Nc2ccc3c(c2)sc(=O)n3C)cc1Cl | inactive: 127% |
| Cc1cccc2cc(CN(Cc3ccco3)C(=O)c3ccccc3)c(=O)[nH]c12 | inactive: 104% |
| CCOC(=O)CCSc1nc(C)cc(C(F)(F)F)c1C#N | inactive: 106% |

| SMILES | survival |
| --- | --- |
| COc1ccccc1CNC(=O)c1ccc(-c2nc(CS(=O)c3ccc(C)cc3)c(C)o2)cc1 (stereo unspecified) | inactive: 131% |
| CCOc1ccc(OCCOCCn2c(-c3ccc(Cl)cc3)nc3ccccc3c2=O)cc1 | inactive: 39% |
| COc1ccc(Nc2ncnc3c2cnn3-c2cc(Cl)ccc2C)cc1OC | inactive: 76% |
| Cc1cccc(-c2nc(SCCCOc3cc(C)c(Cl)c(C)c3)n3[nH]c(=O)cc3n2)c1 | inactive: 73% |
| COc1ccc2c(c1)c1c(c(=O)n(CCc3ccccc3)c(=O)n1Cc1cccc(C)c1)n2C | inactive: 81% |
| CCOC(=O)c1ccc(NC(=O)CCCn2nc(C)c3sc4ccccc4c3c2=O)cc1 | inactive: 92% |
| CSc1ncc(C(=O)NCc2ccc(F)cc2)c(-c2ccccc2)n1 | inactive: 87% |
| CCCCN(CC)CCCNC(=O)Cn1nc(CC)n2c(cc3sccc32)c1=O | inactive: 81% |
| COC(=O)CC(=O)CSc1nc2cc(C(=O)NC(C)C)ccc2c(=O)n1CCc1ccccc1 | inactive: 78% |
| CNc1nc(SCc2ccccc2)nc(N2CCOCC2)n1 | inactive: 110% |
| CCCc1oc2ccc(NS(=O)(=O)c3ccc(OCC)cc3)cc2c1C(=O)OCC | inactive: 44% |
| O=C(Cc1ccc(-c2ccccc2)cc1)NCCS(=O)(=O)N1CCN(c2cccc(Cl)c2)CC1 | inactive: 64% |
| CS(=O)(=O)c1ncc(Cl)c(C(=O)N2CCN(c3cccc(Cl)c3)CC2)n1 | inactive: 38% |
| Cc1nc2cc(-c3ccc(Cl)cc3)nn2c(C)c1CCC(=O)N1CCN(c2ccccc2)CC1 | inactive: 123% |
| O=C(CN1C(=O)COc2ccc(S(=O)(=O)N3CCOCC3)cc21)NCc1ccc(Cl)cc1 | inactive: 78% |
| CCN(C(=O)CSc1nnc(-c2cc3occc3n2C)n1-c1ccccc1C)c1ccccc1 | inactive: 129% |
| CCOc1ccc(Nc2sc(C(=O)c3ccc(F)cc3)c(N)c2S(=O)(=O)c2ccc(C)cc2)cc1 | inactive: 64% |
| Cc1oc2ncn(CC(C)C)c(=O)c2c1C(=O)NCc1cccc(Cl)c1 | inactive: 71% |
| Cc1ccc(-c2onc(C)c2C)cc1S(=O)(=O)N1CCC(C)CC1 | inactive: 82% |
| Cc1ccc(Cn2c(C(=O)Nc3ccc(Cl)cc3)cc3sccc32)cc1 | inactive: 122% |
| CC(C)Oc1ccc(CNC(=O)c2cc3cccc4c3n2CC(C)S4)cc1 (stereo unspecified) | inactive: 90% |
| CCc1ccc(-c2nc3c(c(SCc4ccccc4)n2)Cc2c(CO)cnc(C)c2O3)cc1 | inactive: 89% |
| CCN1/C(=C\C(=O)C2CC2)Sc2ccccc21 | inactive: 112% |

| SMILES | survival |
| --- | --- |
| CCOc1ccc(C2C(=O)N(C3CCCCC3)CC(=O)N2Cc2ccccc2OC)cc1OC (stereo unspecified) | inactive: 66% |
| COc1cc(Cl)c(C)cc1NC(=O)CNC(=O)Cn1ccc2ccccc2c1=O | inactive: 65% |
| COc1ccccc1N(CC(=O)NC1CCCCC1)C(=O)c1csnn1 | inactive: 104% |
| COc1ccc(Cl)cc1NC(=O)c1ccc(CN2C(=O)CCn3nc(C)cc32)cc1 | inactive: 65% |
| Cc1ccc(C)c(NC(=O)CSc2nc(=O)n(CCN3CCOCC3)c3c2CCC3)c1 | inactive: 77% |
| COc1cc2c(cc1OC)C(COc1ccc3c(C)cc(=O)oc3c1)N(C(=O)c1ccc(C)cc1)CC2 (stereo unspecified) | inactive: 72% |
| COc1ccc(C2c3c(n(C)c4ccccc34)C(=O)N2CC(=O)Nc2c(C)cc(C)cc2C)cc1 (stereo unspecified) | inactive: 66% |
| CC(C)Cn1cc(NC(=O)NCc2ccc(Cl)cc2)c2ccccc2c1=O | inactive: 88% |
| CCC(=O)N1c2ccccc2CC1C(=O)NCCCN1CCN(c2cccc(Cl)c2)CC1 (stereo unspecified) | inactive: 80% |
| COc1ccc(Br)c2c1-c1nc(NC(=O)c3ccc(F)cc3)sc1C2 | inactive: 91% |
| CCOC(=O)N1CCC(NC(=O)c2ccc3c(c2)N(Cc2ccccc2)C(=O)c2ccccc2S3(=O)=O)CC1 | inactive: 81% |
| CCOc1ccccc1CNC(=O)C(CC)n1nc(C)c2c(C)n(-c3ccccc3)nc2c1=O (stereo unspecified) | inactive: 88% |
| Cc1c(C(=O)NCc2ccccc2Cl)sc2nc3n(c(=O)c12)CCCC3 | inactive: 78% |
| O=C(Nc1ccc(Cl)cc1)c1ccc2oc(=O)n(Cc3ccccc3)c2c1 | inactive: 63% |
| Cc1ccc2c(c1)C(=O)OC(C(=O)Nc1ccc(C(=O)O)cc1)C2 (stereo unspecified) | inactive: 79% |
| COCCCNc1nc2c(c(=O)n(Cc3ccccc3)c(=O)n2C)n1C | inactive: 90% |
| COc1ccc(C(=O)CN2CCN(S(=O)(=O)c3ccc(F)cc3)CC2)cc1 | inactive: 89% |
| CC(=O)OC1=C(C(C)=O)N(Cc2ccccc2)S(=O)(=O)c2ccccc21 | inactive: 71% |
| Cc1cc(NC(=O)c2ccc(F)cc2)ccc1-c1cc2ccccc2oc1=O | inactive: 81% |
| Cc1ccc(Cl)cc1NC(=O)c1csnn1 | inactive: 85% |
| COc1ccc(-c2cn3c(n2)sc2cc(C(=O)Nc4ccc(F)cc4)ccc23)cc1 | inactive: 88% |
| CC(=O)N1CCC2(CC1)OC(=O)C(C)=C2C(=O)NCc1ccccc1Cl | inactive: 70% |
| CCCCSc1nnc2[nH]c(=O)cc(C)n12 | inactive: 95% |

| SMILES | survival |
| --- | --- |
| O=C(c1cc(-c2ccc(Br)cc2)n[nH]1)N1CCN(S(=O)(=O)c2ccc(Br)s2)CC1 | inactive: 78% |
| CC1CCN(C(=O)CCS(=O)(=O)c2cc3c(cc2Cl)NC(=O)CO3)CC1 | inactive: 110% |
| CCOC(=O)c1nnn(CC(=O)NC(=O)Nc2ccccc2F)c1C(=O)OCC | inactive: 88% |
| Cc1cccc(CC(=O)NC2CC(=O)N(c3ccc4c(c3)OCCO4)C2)c1 (stereo unspecified) | inactive: 71% |
| Fc1ccc(Nc2nc(SCc3cccc(F)c3)nc3ccccc23)cc1 | inactive: 78% |
| O=c1cc(O)n(-c2ccccc2)c(=S)[nH]1 | inactive: 99% |
| CCOc1ccc(Nc2nc(N)c(C(=O)c3ccccc3Cl)s2)cc1 | active: -2% |
| CCN(CC)S(=O)(=O)c1ccc(NC(=O)c2nn(C)c3c2CSc2ccccc2-3)cc1 | inactive: 84% |
| CCC(=O)N1CCc2cc(Br)cc(S(=O)(=O)CCC(=O)Nc3ccc(CC)cc3)c21 | inactive: 88% |
| Cc1ccccc1CSc1ncc(Cl)c(C(=O)NCc2ccccc2)n1 | inactive: 93% |
| CCOC(=O)c1ccc(N2C(=O)c3[nH]nc(-c4ccc(C)cc4)c3C2c2ccc(O)cc2)cc1 (stereo unspecified) | inactive: 87% |
| COc1ccc(NC(=O)C(NC(=O)Cc2cccs2)c2ccc(OC)cc2)cc1 (stereo unspecified) | inactive: 151% |
| Cc1cc(Br)cc(C)c1NC(=O)c1cnc2ccccn2c1=O | inactive: 97% |
| COc1cccc(NS(=O)(=O)c2ccc3[nH]c4c(c3c2)CCCCCC4)c1 | inactive: 81% |
| Cn1c(-c2ccccc2)cnc1SCc1ccccc1 | inactive: 119% |
| Cn1c2c(c(=O)n(C)c1=O)C(c1cccc(O)c1)CC(=O)N2 (stereo unspecified) | inactive: 86% |
| COc1ccc(-c2onc(C)c2C)cc1S(=O)(=O)N1CCc2ccccc21 | active: 1% |
| O=C1CCC(=O)N1CC(O)CCOc1ccc(OCCC(O)CN2C(=O)CCC2=O)cc1 (stereo unspecified) | inactive: 113% |
| CCOC(=O)c1ccc(NC(=O)CC2Nc3cccc4cccc(c34)NC2=O)cc1 (stereo unspecified) | active: -13% |
| Cc1noc(C)c1S(=O)(=O)Nc1ccc(C(=O)Nc2ccc(C(C)C)cc2)cc1 | inactive: 72% |
| CCc1ccc(CN(C(=O)c2ccc(OC)cc2)C2CCS(=O)(=O)C2)cc1 (stereo unspecified) | inactive: 99% |
| COc1cc2c(cc1NC(=O)COc1ccc(Br)c(C)c1)oc1ccccc12 | inactive: 66% |
